# Laboratory results reported in PubChem BioAssay AID1963832 (Molecular Pharmacology Branch, DTP, NCI, 2024).
# Not every entry of the source has a single result; some have several. The list is limited to them. There may be further records. The values listed for one entry repeat one measurement across runs, samples, wells, individuals or studies. A date in brackets names the month of the test. Signs of the kind (2×) give the number of equal values in this list.
# System: 885724-159-R-J1-PDC complex spheroid viability
# Assay: Anticancer human tumor 885724-159-R-J1-PDC patient-derived pancreatic adenocarcinoma cell line growth inhibition [POLQ]
# Settings: compound alone 10 µM; stronger effect = lower value
# Experimental: Multicellular complex tumor spheroid response to Polymerase (POL) inhibitors (novobiocin, ART-558, RP6685) in combination with a variety of drugs and investigational agents in selected tumor cell lines
# The POL inhibitors (novobiocin, ART-558, and RP6685) were evaluated both individually and in combination with standard of care and investigational anticancer small molecules within a complex spheroid model of solid tumors. . Complex spheroids include a stromal component modeled by human endothelial cells (HUVEC) and fibroblasts modeled by human mesenchymal stem cells (MSCs). The concentration ranges selected for each drug and investigational agent were based upon clinically achievable concentrations if the clinical Cmax of the agent was known.
# Compounds. […] If the clinical Cmax for an agent had not been determined, the highest concentration tested was 10 microM, except for SN-38, which was tested at a high concentration of 1 microM. […]
# 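Further: spheroids exposed to compounds for 7 days.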
smiles,measurement,value
Cc1cccc(N(C)C(=O)C2C(O)CCN2c2nc(C)cc(C(F)(F)F)c2C#N)c1 (stereo unspecified),"viability, T/C","107 (2×), 118, 101, 95.5, 89.5, 110, 111% [2023-11] and 96.9, 107, 108, 99.6, 112% [2023-12]"
